About 2,200 (0.71%) of roughly 310,000 compounds showed an effect of 50% or more. Effects have a minus sign here. The list shows a part of the results.
Target: human ether-à-go-go-related gene (hERG) potassium channel (human, UniProt Q12809)
Assay: primary screen, population patch clamp on CHO cells stably expressing hERG

Sequence of human ether-à-go-go-related gene (hERG) potassium channel (Q12809 whole entry, looked up): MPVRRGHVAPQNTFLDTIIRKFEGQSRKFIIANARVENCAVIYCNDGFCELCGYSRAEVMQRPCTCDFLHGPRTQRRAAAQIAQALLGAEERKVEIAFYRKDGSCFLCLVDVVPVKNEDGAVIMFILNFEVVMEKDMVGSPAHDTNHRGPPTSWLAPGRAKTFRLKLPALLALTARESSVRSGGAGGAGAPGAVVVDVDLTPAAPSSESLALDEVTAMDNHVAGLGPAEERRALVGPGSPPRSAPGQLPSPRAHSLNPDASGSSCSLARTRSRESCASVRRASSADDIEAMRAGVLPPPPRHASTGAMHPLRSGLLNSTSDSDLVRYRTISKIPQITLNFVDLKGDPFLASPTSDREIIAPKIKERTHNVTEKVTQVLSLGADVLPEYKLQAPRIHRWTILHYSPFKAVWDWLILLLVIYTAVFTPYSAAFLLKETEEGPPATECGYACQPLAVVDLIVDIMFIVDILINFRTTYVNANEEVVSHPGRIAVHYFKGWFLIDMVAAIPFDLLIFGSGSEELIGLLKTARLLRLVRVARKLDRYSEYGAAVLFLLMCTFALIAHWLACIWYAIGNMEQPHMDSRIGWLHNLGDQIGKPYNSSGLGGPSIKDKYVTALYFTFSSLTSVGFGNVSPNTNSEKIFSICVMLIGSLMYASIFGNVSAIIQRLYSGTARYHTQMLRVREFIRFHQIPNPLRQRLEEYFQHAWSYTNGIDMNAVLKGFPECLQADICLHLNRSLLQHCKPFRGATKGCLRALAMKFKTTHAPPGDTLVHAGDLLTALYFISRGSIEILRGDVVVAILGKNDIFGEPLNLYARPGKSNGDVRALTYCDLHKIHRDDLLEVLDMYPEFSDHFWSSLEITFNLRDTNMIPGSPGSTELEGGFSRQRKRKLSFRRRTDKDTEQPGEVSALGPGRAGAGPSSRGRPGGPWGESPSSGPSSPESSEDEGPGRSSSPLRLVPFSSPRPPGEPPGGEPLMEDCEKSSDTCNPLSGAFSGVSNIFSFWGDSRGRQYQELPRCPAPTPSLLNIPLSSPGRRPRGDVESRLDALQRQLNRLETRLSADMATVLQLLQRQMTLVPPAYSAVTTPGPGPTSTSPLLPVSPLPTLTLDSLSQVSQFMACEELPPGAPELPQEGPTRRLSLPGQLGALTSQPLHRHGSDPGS

SMILES	hERG current change (%, negative = inhibition) at 1uM [%]
N#Cc1c(-c2cccc(Cl)c2)[nH]c(=S)[nH]c1=O	31.3
CCOC(=O)c1nc(-c2ccccc2)oc1N1CCOCC1	4.72
N#C/C(=C\Nc1ccc(Cl)cn1)S(=O)(=O)c1ccccc1	7.94
CC(C)n1cc(NC(=O)c2cc(-c3ccccc3)on2)cn1	-14.5
COC(=O)c1ccccc1NC(=O)c1ccnn1C	6.82
Cc1nnc(SCC(=O)NCCN2C(=O)CSC2=O)n1-c1ccccc1	4.74
CCOC(=O)c1c(N)sc(=S)c2c1CCC2	4.86
COc1ccc(NCc2ccc(OC)c(OC)c2)cc1	4.25
CC(=O)c1ccc(NC(=O)Cn2cnc(S(=O)(=O)N3CCOCC3)c2)cc1	13.6
COc1cc2c(cc1OC)CN(CC(O)c1ccccc1)CC2 (centres unmarked)	12.6
S=c1[nH]nc(C2CC2)n1Cc1ccco1	-2.78
COc1cc(NC(=O)c2cc(C3CC3)on2)c(OC)cc1Cl	3.48
COc1ccc2oc(C(=O)OCC(=O)c3ccc4c(c3)OCCO4)c(C)c2c1	15.5
COc1ccc(N2CCN(C(=O)c3ccc(CNS(=O)(=O)c4ccc(C)cc4)cc3)CC2)cc1	12.9
COc1ccc(CCN(C)C(=O)CNC(=O)c2ccccc2F)cc1OC	1.21
COC(=O)c1c(NC(=O)C2COc3ccccc3O2)sc2c1CCN(C(C)=O)C2 (centres unmarked)	-5.47
O=[N+]([O-])c1ccc(-c2n(-c3ccccn3)c3ccccc3[n+]2-c2ccccn2)cc1.[I-]	10.6
CCOC(=O)C(CCCCP(=O)(c1ccccc1)c1ccccc1)(NC(C)=O)C(=O)OCC	8.58
Cc1cc(C)c2c(c1)N[C@H](c1cccs1)[C@@H]1CCO[C@H]21	3.83
Cn1nc(C(=O)NCc2ccccc2)c2c1-c1ccccc1S(=O)(=O)C2	8.09
CCc1ccc(N(CC(=O)NCc2ccc(OC)cc2)C(=O)CCC(=O)Nc2ccccn2)cc1	-7.83
CCC(C)N1C(=O)N(c2cccc(Cl)c2)C(C)(O)CC1(C)C (centres unmarked)	12.3

SMILES	hERG current change (%, negative = inhibition) at 1uM [%]
O=C(O)c1cccc(C(=O)Nc2cccc(NC(=O)C3CCCO3)c2)c1 (centres unmarked)	21
O=C(CC1OC(=O)c2ccccc21)Nc1cc(S(=O)(=O)N2CCOCC2)ccc1OCC(F)(F)F (centres unmarked)	-0.757
COc1cc2ccccc2cc1C(=O)Nc1ccc(O)cc1	-5.29
O=C(N/C(=C/c1ccc2c(c1)OCO2)C(=O)N1CCOCC1)c1cccs1	9.57
CN(Cc1ccccc1)C(=O)CCCn1c(=O)c2cccn2c2cccnc21	-3.91
O=C1CCC/C1=C\Nc1ccc(Cl)c([N+](=O)[O-])c1	14.4
O=C(Cn1cnc2scc(-c3ccc(F)cc3)c2c1=O)N1CCOCC1	3.83
CC(C(=O)Nc1ccc(Br)cc1C(=O)c1ccccc1)N1CCOCC1 (centres unmarked)	-10.9
O=C(c1ccccc1F)N(Cc1ccccc1)C1CCS(=O)(=O)C1 (centres unmarked)	8.11
Cc1ccc(C(C)(C)C)cc1S(=O)(=O)NC(=O)c1ccccc1	20.3
COc1cccc(-c2cc(C(=O)Nc3cc(C)nn3-c3ccccc3)no2)c1	14.4
COc1ccc(CC(=O)N/N=C/c2cccn2-c2ccc([N+](=O)[O-])cc2)cc1OC	18.1
Cc1cccc(NC(=O)c2cc(=O)c3ccccc3o2)c1	17.2
CC(=O)C1=C(O)C(=O)N(Cc2cccnc2)C1c1ccc(O)cc1 (centres unmarked)	7.48
O=C(Nc1nc2ccccc2s1)c1cc(-c2ccco2)nc2ccccc12	7.55
Cc1[nH]c(=S)[nH]c(=O)c1Cc1ccc(OCC(C)C)cc1	10
O=C(Cn1ncc2c3ccccc3n(Cc3ccccc3)c2c1=O)NCc1ccco1	8.83
Cl.O=C(Oc1cccc2cccnc12)c1cccs1	8.98
Cc1cccc(CSc2nc3c(c(=O)[nH]2)CCCC3)c1	3.71
CCn1cc(C(=O)NCCCOC(C)C)c(=O)c2cc(S(=O)(=O)N3CCOCC3)ccc21	15.7
CCN(CC)S(=O)(=O)c1ccc(Cl)c(NC(=O)COc2ccc(OC)cc2)c1	13.8
Cc1cc([N+](=O)[O-])nn1Cc1noc(C(=O)NCCCn2ccnc2)n1	12.5

Reference: article PMC4336329 (PLoS ONE, 2015)
